# Data published in the supplement of paper PMC8728848.
# Some of the results follow.
# Experiments:
# Experiment in all cases: glycan array binding signal (z-score within array); higher = stronger binding
# Conditions in all cases: glycan notation: IUPAC condensed, linker removed
# [1] = target: Neu5Ac(a2-6)Gal(b1-4)GlcNAc(b1-2)Man(a1-3)[Gal(b1-4)GlcNAc(b1-2)Man(a1-6)]Man(b1-4)GlcNAc(b1-4)GlcNAc
# How it was run: (§1)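 Columns mapping to the same glycan were averaged after glycan names were converted to IUPAC-condensed notation. The data come from 3228 arrays in the Consortium for Functional Glycomics database, limited to those with an available protein sequence. Binding is reported as a within-array Z-score averaged across arrays of one protein sequence and across linkers.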
# [2] = target: Neu5Ac(a2-6)Gal(b1-4)GlcNAc(b1-2)Man(a1-3)[GlcNAc(b1-2)Man(a1-6)]Man(b1-4)GlcNAc(b1-4)GlcNAc
# How it was run: as §1
# [3] = target: Neu5Ac(a2-6)Gal(b1-4)GlcNAc(b1-2)Man(a1-3)[GlcNAc(b1-2)Man(b1-4)GlcNAc(b1-2)Man(a1-6)]Man(b1-4)GlcNAc(b1-4)GlcNAc
# How it was run: as §1
# [4] = target: Neu5Ac(a2-6)Gal(b1-4)GlcNAc(b1-2)Man(a1-3)[Neu5Ac(a2-6)Gal(b1-4)GlcNAc(b1-2)Man(a1-6)]Man(b1-4)GlcNAc(b1-4)GlcNAc
# How it was run: as §1
# [5] = target: Neu5Ac(a2-6)Gal(b1-4)GlcNAc(b1-2)Man(a1-6)[Gal(b1-4)GlcNAc(b1-2)Man(a1-3)]Man(b1-4)GlcNAc(b1-4)GlcNAc
# How it was run: as §1
# [6] = target: Neu5Ac(a2-6)Gal(b1-4)GlcNAc(b1-2)Man(a1-6)[GlcNAc(b1-2)Man(a1-3)]Man(b1-4)GlcNAc(b1-4)GlcNAc
# How it was run: as §1
# [7] = target: Neu5Ac(a2-6)Gal(b1-4)GlcNAc(b1-3)Gal(b1-4)GlcNAc
# How it was run: as §1
# [8] = target: Neu5Ac(a2-6)Gal(b1-4)GlcNAc(b1-3)Gal(b1-4)[Fuc(a1-3)]GlcNAc(b1-3)Gal(b1-4)[Fuc(a1-3)]GlcNAc
# How it was run: as §1
# [9] = target: Neu5Ac(a2-6)Gal(b1-4)GlcNAc6S
# How it was run: as §1
# Neu5Ac(a2-6)GalNAc = target: Neu5Ac(a2-6)GalNAc
# How it was run: as §1
# [10] = target: Neu5Ac(a2-6)GalNAc(b1-4)GlcNAc
# How it was run: as §1
# Neu5Ac(a2-8)Neu5Ac = target: Neu5Ac(a2-8)Neu5Ac
# How it was run: as §1
# [11] = target: Neu5Ac(a2-8)Neu5Ac(a2-3)Gal(b1-4)Glc
# How it was run: as §1
# [12] = target: Neu5Ac(a2-8)Neu5Ac(a2-3)[GalNAc(b1-4)]Gal(b1-4)Glc
# How it was run: as §1
# [13] = target: Neu5Ac(a2-8)Neu5Ac(a2-8)Neu5Ac
# How it was run: as §1
# [14] = target: Neu5Ac(a2-8)Neu5Ac(a2-8)Neu5Ac(a2-3)Gal(b1-4)Glc
# How it was run: as §1
# [15] = target: Neu5Ac(a2-8)Neu5Ac(a2-8)Neu5Ac(a2-3)[GalNAc(b1-4)]Gal(b1-4)Glc
# How it was run: as §1
# [16] = target: Neu5Ac(a2-8)Neu5Ac(a2-8)Neu5Ac(a2-8)Neu5Ac(a2-3)[GalNAc(b1-4)]Gal(b1-4)Glc
# How it was run: as §1
# [17] = target: Neu5Ac(b2-6)Gal(b1-4)GlcNAc
# How it was run: as §1
# Neu5Ac(b2-6)GalNAc = target: Neu5Ac(b2-6)GalNAc
# How it was run: as §1
# [18] = target: Neu5Ac9Ac(a2-6)Gal(b1-4)GlcNAc
# How it was run: as §1
# [19] = target: Neu5Gc(a2-3)Gal(b1-3)GlcNAc
# How it was run: as §1
# [20] = target: Neu5Gc(a2-3)Gal(b1-3)[Fuc(a1-4)]GlcNAc
# How it was run: as §1
# Neu5Gc(a2-3)Gal(b1-4)Glc = target: Neu5Gc(a2-3)Gal(b1-4)Glc
# How it was run: as §1
# [21] = target: Neu5Gc(a2-3)Gal(b1-4)GlcNAc
# How it was run: as §1
# [22] = target: Neu5Gc(a2-3)Gal(b1-4)[Fuc(a1-3)]GlcNAc
# How it was run: as §1
# [23] = target: Neu5Gc(a2-6)Gal(b1-4)GlcNAc
# How it was run: as §1
# Neu5Gc(a2-6)GalNAc = target: Neu5Gc(a2-6)GalNAc
# How it was run: as §1
# [24] = target: Neu5Gc(b2-6)Gal(b1-4)GlcNAc
# How it was run: as §1
binder,measurement,setting,value
"SLR2P3F12 (Tachypleus tridentatus), TAL2_TACTR (protein) MEKGTPPTHDSDNWMGRAKKIGNGGWNQFQFLFFDPNGYLYAVSKDKLYKASPPQSDTDNWIARATEIGSGGWSGFKSLFFHPNGYLYAVHGQRLYKALPPVSNQD",glycan array binding signal (z-score),[1],-0.422
same,glycan array binding signal (z-score),[2],-0.235
same,glycan array binding signal (z-score),[3],0.214
same,glycan array binding signal (z-score),[4],0.131
same,glycan array binding signal (z-score),[5],-0.044
same,glycan array binding signal (z-score),[6],1.27
same,glycan array binding signal (z-score),[7],-0.606
same,glycan array binding signal (z-score),[8],-0.282
same,glycan array binding signal (z-score),[9],0.194
same,glycan array binding signal (z-score),Neu5Ac(a2-6)GalNAc,0.848
same,glycan array binding signal (z-score),[10],0.629
same,glycan array binding signal (z-score),Neu5Ac(a2-8)Neu5Ac,-0.388
same,glycan array binding signal (z-score),[11],-0.349
same,glycan array binding signal (z-score),[12],-0.544
same,glycan array binding signal (z-score),[13],-0.306
same,glycan array binding signal (z-score),[14],-0.061
same,glycan array binding signal (z-score),[15],-0.401
same,glycan array binding signal (z-score),[16],-0.351
same,glycan array binding signal (z-score),[17],0.305
same,glycan array binding signal (z-score),Neu5Ac(b2-6)GalNAc,1.25
same,glycan array binding signal (z-score),[18],-0.257
same,glycan array binding signal (z-score),[19],-0.024
same,glycan array binding signal (z-score),[20],-0.368
same,glycan array binding signal (z-score),Neu5Gc(a2-3)Gal(b1-4)Glc,-0.317
same,glycan array binding signal (z-score),[21],-0.523
same,glycan array binding signal (z-score),[22],-0.166
same,glycan array binding signal (z-score),[23],-0.249
same,glycan array binding signal (z-score),Neu5Gc(a2-6)GalNAc,-0.333
same,glycan array binding signal (z-score),[24],0.088
